115 sequences from the BET-seq Pho4 binding data (Le et al. 2018) can be followed below.

The list shows a part of the results. Values were computed here from the reads of four pooled replicates and scatter widely.

The test concerns the target T1, Pho4 (S. cerevisiae) (UniProt P07270).
T1 sequence: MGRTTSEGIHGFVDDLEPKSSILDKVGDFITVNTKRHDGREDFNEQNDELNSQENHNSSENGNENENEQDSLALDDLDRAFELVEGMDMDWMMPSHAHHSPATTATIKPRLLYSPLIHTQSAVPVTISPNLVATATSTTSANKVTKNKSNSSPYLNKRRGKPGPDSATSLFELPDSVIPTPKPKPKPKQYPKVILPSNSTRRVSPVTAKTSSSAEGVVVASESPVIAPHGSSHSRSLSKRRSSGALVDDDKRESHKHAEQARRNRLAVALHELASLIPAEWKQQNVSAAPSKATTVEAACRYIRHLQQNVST
In words: relative binding free energy (BET-seq); higher = weaker binding. As to conditions: reference: library average.
Regarding GGCGTCACGTGATTTT, the “relative binding free energy” value was found to be 0.25 kcal/mol.

On to GTTGCCACGTGGGGCT, for which the “relative binding free energy” value was -0.26 kcal/mol.

Regarding TTTTTCACGTGGTGGA, the “relative binding free energy” value was determined as 0.27 kcal/mol.

Take GTGAGCACGTGGTTGC: the “relative binding free energy” value was -0.05 kcal/mol.

For TAGGACACGTGGGCTG, the “relative binding free energy” value is -0.04 kcal/mol.

Turning to AGAGGCACGTGGATAG, the “relative binding free energy” value is -0.17 kcal/mol.

As to TAATTCACGTGTCATT, the “relative binding free energy” value was found to be 0.07 kcal/mol.

As to AAAGGCACGTGGATGG, the “relative binding free energy” value was -0.27 kcal/mol.

For AGTATCACGTGGTGTT, the “relative binding free energy” value is 0.06 kcal/mol.

AGGTTCACGTGGCGAA: the “relative binding free energy” value was found to be 0.15 kcal/mol.

As to TACAGCACGTGTTTTG, the “relative binding free energy” value was 0 kcal/mol.

Turning to TATGGCACGTGATGGC, the “relative binding free energy” value is -0.03 kcal/mol.

With ATTGTCACGTGTTTAG, the “relative binding free energy” value stood at 0.07 kcal/mol.

For the sequence CTTTACACGTGAATGT, the “relative binding free energy” value is 0.29 kcal/mol.

As to TCTTGCACGTGGGAGT, the “relative binding free energy” value was -0.09 kcal/mol.

Turning to TCGGTCACGTGGTCGG, the “relative binding free energy” value came to 0.01 kcal/mol.

Regarding CAGTACACGTGGAGTT, the “relative binding free energy” value came to 0.14 kcal/mol.

For the sequence TCTTACACGTGGGTGG, the “relative binding free energy” value is -0.04 kcal/mol.

In the case of AGGTGCACGTGGGCTC, the “relative binding free energy” value was -0.13 kcal/mol.

CCAGTCACGTGTGGGG: the “relative binding free energy” value came out at 0.16 kcal/mol.

For the sequence GTGGGCACGTGGAGGC, the “relative binding free energy” value is 0.03 kcal/mol.

Take TTACGCACGTGGCGGG: the “relative binding free energy” value is -0.29 kcal/mol.

As for TGTTACACGTGTGTCA, the “relative binding free energy” value came to 0.09 kcal/mol.

With CCGTGCACGTGGGGTG, the “relative binding free energy” value is -0.25 kcal/mol.

For the sequence TCTGGCACGTGTGCTA, the “relative binding free energy” value was -0.02 kcal/mol.

Consider GGTAGCACGTGAGGAC, for which the “relative binding free energy” value worked out at 0.22 kcal/mol.

As to GTGTACACGTGGAGTT, the “relative binding free energy” value is 0.2 kcal/mol.

In the case of TAAGGCACGTGGTAAT, the “relative binding free energy” value was -0.2 kcal/mol.

Turning to CAGGGCACGTGGGAGA, the “relative binding free energy” value was -0.12 kcal/mol.

As to AGGTTCACGTGTGGTA, the “relative binding free energy” value is 0.32 kcal/mol.

As for CATCGCACGTGGTGGG, the “relative binding free energy” value was -0.13 kcal/mol.

Take GTGTACACGTGTTTCT: the “relative binding free energy” value was 0.04 kcal/mol.

AATTGCACGTGGGCGA: the “relative binding free energy” value is -0.03 kcal/mol.

On to AGGTGCACGTGTGCGT, for which the “relative binding free energy” value was -0.13 kcal/mol.

Turning to GTAATCACGTGGAAGG, the “relative binding free energy” value was determined as 0.22 kcal/mol.

On to TTGTTCACGTGTACTG, for which the “relative binding free energy” value is 0.35 kcal/mol.

Turning to TTATGCACGTGTACTT, the “relative binding free energy” value was -0.15 kcal/mol.

With GTTCACACGTGGGGTA, the “relative binding free energy” value was 0.01 kcal/mol.

On to AGATTCACGTGTTGGC, for which the “relative binding free energy” value was 0.34 kcal/mol.

In the case of GCGGGCACGTGGAGTC, the “relative binding free energy” value was -0.01 kcal/mol.

AATTTCACGTGCGTCG: the “relative binding free energy” value is 0.28 kcal/mol.

With TCGGGCACGTGTTTAA, the “relative binding free energy” value is -0.04 kcal/mol.

As for TTGGCCACGTGGTGAT, the “relative binding free energy” value was -0.19 kcal/mol.

On to AGAGGCACGTGTAGTC, for which the “relative binding free energy” value came out at 0 kcal/mol.

For the sequence AGGTGCACGTGGATAA, the “relative binding free energy” value is -0.01 kcal/mol.

On to TATTGCACGTGGAGTC, for which the “relative binding free energy” value is -0.1 kcal/mol.

As to ATAGGCACGTGCGTGT, the “relative binding free energy” value is -0.24 kcal/mol.

Regarding GTCATCACGTGCTGTT, the “relative binding free energy” value came to 0.2 kcal/mol.

For TAGGCCACGTGGGGTA, the “relative binding free energy” value was -0.3 kcal/mol.

On to TGCTCCACGTGGTTGT, for which the “relative binding free energy” value was -0.09 kcal/mol.

For the sequence GGCTACACGTGTGTAT, the “relative binding free energy” value worked out at 0.36 kcal/mol.

For AAGGACACGTGTGGTA, the “relative binding free energy” value was -0.02 kcal/mol.

On to AGATACACGTGAAGGT, for which the “relative binding free energy” value is 0.3 kcal/mol.

As to TGGTGCACGTGATAAA, the “relative binding free energy” value is 0.16 kcal/mol.

TTCGTCACGTGGAGTA: the “relative binding free energy” value was found to be 0.05 kcal/mol.

For the sequence GTAGTCACGTGTTTGA, the “relative binding free energy” value was determined as 0.05 kcal/mol.

Regarding CCAGGCACGTGGTGTG, the “relative binding free energy” value is -0.27 kcal/mol.

As for CTGCGCACGTGTGTTG, the “relative binding free energy” value is 0 kcal/mol.

As to TACGGCACGTGTTGTC, the “relative binding free energy” value turned out to be 0.01 kcal/mol.

For GTGCGCACGTGATGTA, the “relative binding free energy” value is -0.02 kcal/mol.

On to TAGAACACGTGGTCGT, for which the “relative binding free energy” value was -0.08 kcal/mol.

As for TGTTTCACGTGGATAC, the “relative binding free energy” value is 0.17 kcal/mol.

Consider AGGGGCACGTGGGGAA, for which the “relative binding free energy” value was -0.18 kcal/mol.

With ATTATCACGTGGGACT, the “relative binding free energy” value worked out at 0.09 kcal/mol.

Take TAGCGCACGTGGGGGA: the “relative binding free energy” value is -0.2 kcal/mol.

For GGCTTCACGTGGGGGA, the “relative binding free energy” value was 0.23 kcal/mol.

Consider TGTGGCACGTGTTTTT, for which the “relative binding free energy” value is -0.01 kcal/mol.

In the case of CATTTCACGTGGAGTA, the “relative binding free energy” value was 0.34 kcal/mol.

With AGAGTCACGTGGCGGC, the “relative binding free energy” value amounted to 0.04 kcal/mol.

With GGCTGCACGTGTATTG, the “relative binding free energy” value is 0.01 kcal/mol.

Turning to GGGTACACGTGACGGA, the “relative binding free energy” value stood at 0.26 kcal/mol.

Take GGGGACACGTGATTGT: the “relative binding free energy” value is 0.14 kcal/mol.

Turning to TACGTCACGTGAGTTG, the “relative binding free energy” value stood at 0.16 kcal/mol.

Consider AGGGTCACGTGAGCTT, for which the “relative binding free energy” value was 0.23 kcal/mol.

Turning to ACGTTCACGTGTGTAG, the “relative binding free energy” value worked out at 0.33 kcal/mol.

In the case of TAGATCACGTGAAAGG, the “relative binding free energy” value was found to be 0.28 kcal/mol.

Turning to CATTTCACGTGAGGGT, the “relative binding free energy” value was determined as 0.37 kcal/mol.

Turning to CTGGGCACGTGGGGTC, the “relative binding free energy” value was -0.33 kcal/mol.

For TCATTCACGTGATTTA, the “relative binding free energy” value was 0.29 kcal/mol.

TGTGCCACGTGATAGG: the “relative binding free energy” value was -0.02 kcal/mol.

Turning to TTCTGCACGTGATGAG, the “relative binding free energy” value was 0.08 kcal/mol.

As to GGTATCACGTGATTGA, the “relative binding free energy” value stood at 0.31 kcal/mol.

In the case of CCGTGCACGTGGGATG, the “relative binding free energy” value is -0.13 kcal/mol.

On to CAGAGCACGTGTGTGT, for which the “relative binding free energy” value is -0.09 kcal/mol.

Regarding AGTTGCACGTGGTAGC, the “relative binding free energy” value was -0.21 kcal/mol.

Turning to GTTTACACGTGGAAAG, the “relative binding free energy” value was determined as 0.29 kcal/mol.

Regarding GACGTCACGTGTGGGT, the “relative binding free energy” value amounted to 0.22 kcal/mol.

Regarding GTTGCCACGTGTGGGG, the “relative binding free energy” value amounted to 0.04 kcal/mol.

Turning to AAGTTCACGTGTGGCG, the “relative binding free energy” value was found to be 0.27 kcal/mol.

Turning to AGGTGCACGTGCTGAA, the “relative binding free energy” value was -0.11 kcal/mol.

For AGCGGCACGTGGAGTA, the “relative binding free energy” value was -0.31 kcal/mol.

For TTTCTCACGTGGGGAG, the “relative binding free energy” value was found to be 0.03 kcal/mol.

In the case of CTTAACACGTGTGAGG, the “relative binding free energy” value is 0.08 kcal/mol.

GGAAACACGTGGTAGG: the “relative binding free energy” value was -0.07 kcal/mol.

With TCGATCACGTGTGTTT, the “relative binding free energy” value worked out at 0.2 kcal/mol.

On to TGGCGCACGTGAAATG, for which the “relative binding free energy” value came out at 0.23 kcal/mol.

Regarding AGGGGCACGTGAACGA, the “relative binding free energy” value stood at 0.19 kcal/mol.

GTTGACACGTGGTAGT: the “relative binding free energy” value was -0.06 kcal/mol.

AGATGCACGTGGGTGT: the “relative binding free energy” value was -0.11 kcal/mol.

As to TGGCGCACGTGTAGTA, the “relative binding free energy” value came to 0.01 kcal/mol.

TAGTGCACGTGTGGCG: the “relative binding free energy” value was -0.01 kcal/mol.

With AGTTACACGTGTGGTT, the “relative binding free energy” value was 0.23 kcal/mol.

For the sequence AATTGCACGTGGGTAA, the “relative binding free energy” value was -0.1 kcal/mol.

TTGTGCACGTGACTTA: the “relative binding free energy” value came out at 0.03 kcal/mol.

Turning to TTGCTCACGTGAGGTC, the “relative binding free energy” value came out at 0.37 kcal/mol.

As to GTAATCACGTGTTCGT, the “relative binding free energy” value was found to be 0.13 kcal/mol.

As to GAGAGCACGTGTGTGT, the “relative binding free energy” value worked out at 0.02 kcal/mol.

As to TGTTTCACGTGCATCG, the “relative binding free energy” value is 0.21 kcal/mol.

As to GTTGACACGTGTGGCA, the “relative binding free energy” value stood at 0.09 kcal/mol.

Consider CTGGTCACGTGCTGGG, for which the “relative binding free energy” value amounted to 0.22 kcal/mol.

Consider CTGGCCACGTGCGGTT, for which the “relative binding free energy” value was 0.03 kcal/mol.

Take TTCGTCACGTGAATAT: the “relative binding free energy” value turned out to be 0.27 kcal/mol.

For the sequence GAGTTCACGTGGTGCT, the “relative binding free energy” value turned out to be 0.22 kcal/mol.

Take GATTGCACGTGGCGGG: the “relative binding free energy” value is -0.1 kcal/mol.

TTGTCCACGTGTTAGG: the “relative binding free energy” value was determined as 0.15 kcal/mol.
